# Reference: the supplement of paper PMC8728848
# The list shows a part of the results.
# B1: Na-CTL-1 (Necator americanus) (protein)
# chain: MQRSFLLLLVVLAGAWAVNTTIPLKLMGGFTPMKYQCVGRVSDIWADVLFLIESSDMITKSGFRQVIAFITATTKKMTIGQDEKQTRVGFITYGEEAKLIYDLDHWRSTEKLSDLVQKIPYVKSSGTNIAAAIALANKVFNSPTHRPNVPKVMVIVANGLKKGSQNPIPVATAFKDFGGIIITIEYTQYDNIQVPILKKIASEGYNIRSNDEDFSVRTLTNMLLQANCFCPDHYVPFRVNNPEFGCFVTAKIPSMWRDAAEMCRAVEEGKLVKVENEEKAAFIMKLVGPKKEAWIGLRYYGNKFQWTDGTKLNADDFNLWPEDIKELNGPHCVSMYQDQKDKKYYWRAGKCLEDMRYVCEVQPCSASNYCSEPVFMYRQKHRALLPAPPPPPN
# Key:
# Assay in all cases: glycan array binding signal (z-score within array); higher = stronger binding
# Details in all cases: glycan notation: IUPAC condensed, linker removed
# Fuc(a1-2)Gal = molecular target: Fuc(a1-2)Gal
# Procedure, shortened: (§1)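 Glycan array data were curated from 3228 arrays in the Consortium for Functional Glycomics database and kept only where the protein sequence was available. Glycan names were converted to IUPAC-condensed notation, and columns mapping to the same glycan were averaged. The binding signal is a within-array Z-score, averaged across arrays of the same protein sequence at different concentrations or buffers and across linkers. Negative Z-scores can be read as non-binding.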
# Fuc(a1-2)Gal(b1-3)GalNAc = molecular target: Fuc(a1-2)Gal(b1-3)GalNAc
# Procedure, shortened: as §1
# [1] = molecular target: Fuc(a1-2)Gal(b1-3)GalNAc(a1-3)[Fuc(a1-2)]Gal(b1-4)Glc
# Procedure, shortened: as §1
# [2] = molecular target: Fuc(a1-2)Gal(b1-3)GalNAc(a1-3)[Fuc(a1-2)]Gal(b1-4)GlcNAc
# Procedure, shortened: as §1
# [3] = molecular target: Fuc(a1-2)Gal(b1-3)GalNAc(b1-3)Gal
# Procedure, shortened: as §1
# [4] = molecular target: Fuc(a1-2)Gal(b1-3)GalNAc(b1-3)Gal(a1-4)Gal(b1-4)Glc
# Procedure, shortened: as §1
# [5] = molecular target: Fuc(a1-2)Gal(b1-3)GalNAc(b1-4)[Neu5Ac(a2-3)]Gal(b1-4)Glc
# Procedure, shortened: as §1
# Fuc(a1-2)Gal(b1-3)GlcNAc = molecular target: Fuc(a1-2)Gal(b1-3)GlcNAc
# Procedure, shortened: as §1
# [6] = molecular target: Fuc(a1-2)Gal(b1-3)GlcNAc(b1-2)Man(a1-3)[Fuc(a1-2)Gal(b1-3)GlcNAc(b1-2)Man(a1-6)]Man(b1-4)GlcNAc(b1-4)GlcNAc
# Procedure, shortened: as §1
# [7] = molecular target: Fuc(a1-2)Gal(b1-3)GlcNAc(b1-2)Man(a1-3)[Fuc(a1-2)Gal(b1-3)GlcNAc(b1-2)Man(a1-6)]Man(b1-4)GlcNAc(b1-4)[Fuc(a1-6)]GlcNAc
# Procedure, shortened: as §1
# [8] = molecular target: Fuc(a1-2)Gal(b1-3)GlcNAc(b1-3)Gal(b1-4)Glc
# Procedure, shortened: as §1
# [9] = molecular target: Fuc(a1-2)Gal(b1-3)GlcNAc(b1-3)GalNAc
# Procedure, shortened: as §1
# [10] = molecular target: Fuc(a1-2)Gal(b1-3)GlcNAc(b1-3)[Fuc(a1-2)Gal(b1-3)GlcNAc(b1-6)]GalNAc
# Procedure, shortened: as §1
# [11] = molecular target: Fuc(a1-2)Gal(b1-3)GlcNAc(b1-3)[Gal(b1-4)GlcNAc(b1-6)]Gal(b1-4)Glc
# Procedure, shortened: as §1
# [12] = molecular target: Fuc(a1-2)Gal(b1-3)GlcNAc(b1-3)[Neu5Ac(a2-6)Gal(b1-4)GlcNAc(b1-6)]Gal(b1-4)Glc
# Procedure, shortened: as §1
# [13] = molecular target: Fuc(a1-2)Gal(b1-3)GlcNAc6S
# Procedure, shortened: as §1
# [14] = molecular target: Fuc(a1-2)Gal(b1-3)[Fuc(a1-4)]GlcNAc
# Procedure, shortened: as §1
# [15] = molecular target: Fuc(a1-2)Gal(b1-3)[Fuc(a1-4)]GlcNAc(b1-2)Man(a1-3)[Fuc(a1-2)Gal(b1-3)[Fuc(a1-4)]GlcNAc(b1-2)Man(a1-3)]Man(b1-4)GlcNAc(b1-4)GlcNAc
# Procedure, shortened: as §1
# [16] = molecular target: Fuc(a1-2)Gal(b1-3)[Fuc(a1-4)]GlcNAc(b1-2)Man(a1-3)[Fuc(a1-2)Gal(b1-3)[Fuc(a1-4)]GlcNAc(b1-2)Man(a1-6)]Man(b1-4)GlcNAc(b1-4)[Fuc(a1-6)]GlcNAc(b1-4)[Fuc(a1-6)]GlcNAc
# Procedure, shortened: as §1
# [17] = molecular target: Fuc(a1-2)Gal(b1-3)[Fuc(a1-4)]GlcNAc(b1-3)[Fuc(a1-3)[Gal(b1-4)]GlcNAc(b1-6)]Gal(b1-4)Glc
# Procedure, shortened: as §1
# [18] = molecular target: Fuc(a1-2)Gal(b1-3)[Fuc(a1-4)]GlcNAc(b1-3)[Gal(b1-4)GlcNAc(b1-6)]Gal(b1-4)Glc
# Procedure, shortened: as §1
# Fuc(a1-2)Gal(b1-4)Glc = molecular target: Fuc(a1-2)Gal(b1-4)Glc
# Procedure, shortened: as §1
# Fuc(a1-2)Gal(b1-4)Glc6S = molecular target: Fuc(a1-2)Gal(b1-4)Glc6S
# Procedure, shortened: as §1
# Fuc(a1-2)Gal(b1-4)GlcNAc = molecular target: Fuc(a1-2)Gal(b1-4)GlcNAc
# Procedure, shortened: as §1
# [19] = molecular target: Fuc(a1-2)Gal(b1-4)GlcNAc(b1-2)Man
# Procedure, shortened: as §1
# [20] = molecular target: Fuc(a1-2)Gal(b1-4)GlcNAc(b1-2)Man(a1-3)[Fuc(a1-2)Gal(b1-4)GlcNAc(b1-2)Man(a1-6)]Man(b1-4)GlcNAc(b1-4)GlcNAc
# Procedure, shortened: as §1
# [21] = molecular target: Fuc(a1-2)Gal(b1-4)GlcNAc(b1-2)Man(a1-3)[Fuc(a1-2)Gal(b1-4)GlcNAc(b1-2)Man(a1-6)]Man(b1-4)GlcNAc(b1-4)[Fuc(a1-6)]GlcNAc
# Procedure, shortened: as §1
# [22] = molecular target: Fuc(a1-2)Gal(b1-4)GlcNAc(b1-2)[Fuc(a1-2)Gal(b1-4)GlcNAc(b1-4)]Man(a1-3)[Fuc(a1-2)Gal(b1-4)GlcNAc(b1-2)Man(a1-6)]Man(b1-4)GlcNAc(b1-4)GlcNAc
# Procedure, shortened: as §1
# [23] = molecular target: Fuc(a1-2)Gal(b1-4)GlcNAc(b1-3)Gal(b1-4)GlcNAc
# Procedure, shortened: as §1
# [24] = molecular target: Fuc(a1-2)Gal(b1-4)GlcNAc(b1-3)Gal(b1-4)GlcNAc(b1-2)Man(a1-3)[Fuc(a1-2)Gal(b1-4)GlcNAc(b1-3)Gal(b1-4)GlcNAc(b1-2)Man(a1-6)]Man(b1-4)GlcNAc(b1-4)GlcNAc
# Procedure, shortened: as §1
# [25] = molecular target: Fuc(a1-2)Gal(b1-4)GlcNAc(b1-3)Gal(b1-4)GlcNAc(b1-3)Gal(b1-4)GlcNAc
# Procedure, shortened: as §1
# [26] = molecular target: Fuc(a1-2)Gal(b1-4)GlcNAc(b1-3)GalNAc
# Procedure, shortened: as §1
# [27] = molecular target: Fuc(a1-2)Gal(b1-4)GlcNAc(b1-3)[Fuc(a1-2)Gal(b1-4)GlcNAc(b1-6)]GalNAc
# Procedure, shortened: as §1
# [28] = molecular target: Fuc(a1-2)Gal(b1-4)GlcNAc(b1-3)[Fuc(a1-3)[Gal(b1-4)]GlcNAc(b1-6)]Gal(b1-4)Glc
# Procedure, shortened: as §1
# [29] = molecular target: Fuc(a1-2)Gal(b1-4)GlcNAc(b1-6)GalNAc
# Procedure, shortened: as §1
# [30] = molecular target: Fuc(a1-2)Gal(b1-4)GlcNAc6S
# Procedure, shortened: as §1
# [31] = molecular target: Fuc(a1-2)Gal(b1-4)[Fuc(a1-3)]GlcNAc
# Procedure, shortened: as §1
binder,measurement,setting,value
B1,glycan array binding signal (z-score),Fuc(a1-2)Gal,0.439
same,glycan array binding signal (z-score),Fuc(a1-2)Gal(b1-3)GalNAc,-0.381
same,glycan array binding signal (z-score),[1],-0.342
same,glycan array binding signal (z-score),[2],-0.486
same,glycan array binding signal (z-score),[3],-0.258
same,glycan array binding signal (z-score),[4],-0.262
same,glycan array binding signal (z-score),[5],-0.018
same,glycan array binding signal (z-score),Fuc(a1-2)Gal(b1-3)GlcNAc,-0.44
same,glycan array binding signal (z-score),[6],-0.558
same,glycan array binding signal (z-score),[7],0.162
same,glycan array binding signal (z-score),[8],0.011
same,glycan array binding signal (z-score),[9],-0.349
same,glycan array binding signal (z-score),[10],-0.132
same,glycan array binding signal (z-score),[11],-0.506
same,glycan array binding signal (z-score),[12],-0.174
same,glycan array binding signal (z-score),[13],0.067
same,glycan array binding signal (z-score),[14],-0.101
same,glycan array binding signal (z-score),[15],0.066
same,glycan array binding signal (z-score),[16],0.042
same,glycan array binding signal (z-score),[17],-0.482
same,glycan array binding signal (z-score),[18],-0.459
same,glycan array binding signal (z-score),Fuc(a1-2)Gal(b1-4)Glc,0.537
same,glycan array binding signal (z-score),Fuc(a1-2)Gal(b1-4)Glc6S,0.036
same,glycan array binding signal (z-score),Fuc(a1-2)Gal(b1-4)GlcNAc,-0.311
same,glycan array binding signal (z-score),[19],0.123
same,glycan array binding signal (z-score),[20],-0.331
same,glycan array binding signal (z-score),[21],-0.327
same,glycan array binding signal (z-score),[22],0.435
same,glycan array binding signal (z-score),[23],0.149
same,glycan array binding signal (z-score),[24],-0.006
same,glycan array binding signal (z-score),[25],-0.372
same,glycan array binding signal (z-score),[26],-0.572
same,glycan array binding signal (z-score),[27],-0.753
same,glycan array binding signal (z-score),[28],0.038
same,glycan array binding signal (z-score),[29],-0.5
same,glycan array binding signal (z-score),[30],-0.775
same,glycan array binding signal (z-score),[31],-0.236
